According to article PMC10668032:
Some of the results follow. At the low end of the ranking the order means little.

Biological target: SIX1 homeodomain (reference allele) (UniProt Q15475)
Test: universal protein binding microarray
Conditions: Universal all-10-mer PBM (8x60K, AMADID 030236), 300 nM GST-tagged protein, Alexa Fluor 488 anti-GST; buffer, salt, pH and temperature not stated; high values mean tight binding; most listed sequences are background and not binding sites; double strand, one strand shown

Sequence	binding signal [E-score]
ATACGTCA	0.196
CATTGCTC	-0.141
CGGCAGCA	-0.149
GAGTCAAA	-0.154
CCCCAGGG	0.0362
AACACGTC	-0.241
CTTCTTAC	-0.0869
CATGATTA	-0.108
GCACGTCA	-0.379
TCAGATAA	0.21
CGACAAAC	-0.15
AGCTGTGG	-0.135
AGTCATTA	-0.285
CAGATCAA	0.298
AGTCTAAT	-0.144
AGACTGCG	-0.0794
GTAGATAA	0.0864
CTCAGCAG	-0.095
CACAGGTC	-0.154
GATGGTAA	0.0563
TGGGACAA	-0.206
AGTGGGAA	-0.0951
CGAAAACA	-0.193
AAACGGCC	-0.126
CATCCACC	0.0673

Sequence	binding signal [E-score]
GCATCGTA	0.066
ACGATCCG	0.425
CTCTCCGC	-0.00954
AAAGTTGA	-0.208
CGGCGGCA	-0.198
AACTGCGG	-0.105
CGTAGATA	0.23
AACCGTAG	-0.219
CTGCACAC	-0.159
ATCGTCCC	0.232
CCTGCAGA	0.0069
GCCGCTGA	-0.0861
CCATATGA	0.0499
CAATTACG	-0.186
AATTATCA	0.0693
TCGACACA	-0.062
AATGGCAT	0.0394
GAACCGAA	-0.182
AGCAGATA	0.319
GAGTGATC	0.336
CTAAGGGC	-0.307
CGTTACCC	0.0398
GAAACCAC	0.206
GTTCGCGA	-0.0837
TAAGCCCA	-0.133

Sequence	binding signal [E-score]
CATGGTCC	-0.00628
ACCGTTCG	0.145
AAAAGCAA	-0.315
AGCAAACA	-0.195
ACCTCTGC	-0.0615
GCCACCAA	-0.171
AAGGTGCA	-0.00721
ATCGAAGG	0.179
CTGGGGGC	-0.238
AAGTGAAG	-0.163
GTAGATCA	0.29
AACTACTA	-0.011
ACATTTGA	-0.118
TCTGTGAA	0.0513
AAAGCCCC	-0.171
GGCTACTA	0.0834
ACTAGTTA	0.0011
AAGTCCCA	-0.296
AGTACGTA	0.0991
CTGCTAAA	-0.117
GTAAGGAA	-0.174
ACAGTTAG	-0.164
GAATGGCA	-0.186
AGAAACAT	-0.131
CCGGACCA	-0.0433

Sequence	binding signal [E-score]
AGATCAGG	0.284
CCCTCAGG	-0.0447
ACCAGCCT	0.106
CCCAAATC	-0.171
CCCGGCAG	-0.0973
TCAGTACA	-0.0309
ATCTCAAG	0.215
GTTCTTGA	-0.102
TACAGTGA	0.00292
GGAATTCA	-0.154
TCCTACCA	-0.027
CGCCGTAG	-0.188
GCTCGTTA	-0.0541
ATTTTACC	-0.038
AGGCTCAG	0.0998
ACTACCGA	-0.0724
CAAGGCAG	-0.175
GTTATACA	0.151
CAAATTGA	-0.154
AACTATTA	-0.13
GCTCGACC	-0.0828
AGGTTCCC	-0.255
CTAAGTCA	-0.154
CTACGCGA	0.0205
AGACCAAT	-0.144

Sequence	binding signal [E-score]
ACATCTAA	-0.0234
CTGTGCTC	0.0398
ACAGTAGG	-0.096
TCAACTGA	0.0209
ATTTTCGC	-0.145
GCATAAGC	-0.173
GGGCGAAC	-0.0928
AAAGGTAC	-0.113
CGCGCAGA	0.0738
GACTGAAC	-0.134
CACTGAGC	-0.0612
CTCGATGA	0.165
AAAAATCG	-0.241
CACACATA	-0.0524
CTACTCTA	0.11
CTCGCTTA	0.0595
ATAATCTC	0.186
CAGCCACA	-0.0704
AAAAACCA	-0.06
ATAGCGGC	0.194
AGGCCCTG	-0.261
AATCTAGT	-0.121
CCTGTGCA	-0.141
CAACGTCC	-0.316
AGGCACCA	-0.053

Sequence	binding signal [E-score]
ACGACCCG	0.0857
AGCTTCGA	-0.101
CATTTGTA	-0.0461
AAAGGCCA	-0.12
GTTAGAGA	-0.201
CGGGCGCA	-0.0953
AAGAAACG	-0.0137
ACAACATG	-0.0441
ACATGGGC	-0.271
ATGTGCCA	-0.115
ACTCAAGC	-0.174
AATAGTGA	-0.118
CGAAACCA	0.165
CCTTACGC	-0.164
AAAGCCGT	-0.0418
GGCGTGTA	0.141
CGCTGAAG	-0.113
AACCCTGT	-0.0754
ATCGGAAC	0.132
ACACGGCA	0.0118
ATGTTCCC	-0.0773
AGCAAGTC	-0.256
GGGGGAGA	0.121
GAGGAGAC	-0.0944
AGTGTTAT	0.0606

Sequence	binding signal [E-score]
TCCACAAA	0.0353
GCCTTCGA	-0.133
ACGTAACC	-0.216
CCGGAAAA	-0.151
GGGCTAAC	-0.164
AAGCGTTC	-0.266
CGAGATCC	0.325
ACAGAATA	0.0822
AATGATGG	0.0261
ATATCCAA	0.358
CGACTTGA	-0.0299
GAGTGAAC	-0.125
GGCGCGCC	-0.25
AAAGTGAC	-0.193
ATCCGGGA	0.295
GACTTAAC	-0.384
AGAGTGCG	-0.152
ACTCACCC	-0.0761
CGGAAACA	-0.0392
CTAAGATA	0.241
GTCACCAA	-0.115
AATACCAC	0.33
CGTAAAAC	-0.0435
ACGGTCTA	-0.108
GCACGGGA	-0.0887

Sequence	binding signal [E-score]
ATCTACAC	0.221
AGGGGTCG	0.0957
AGTAACGC	-0.357
ATGCTAGG	0.054
CAAGCTGA	-0.0652
GAAGGTTA	-0.056
GAGTATCA	0.47
CGCTAGGA	0.0482
CGCTGCCC	-0.0948
CTACTACA	-0.0526
TTACGGAA	-0.0871
AAGGACAC	0.11
GGATTACA	0.18
CGATGGAC	-0.0215
GAGATAAA	0.0356
CTCGAGCC	0.0489
ACCCGGAT	0.411
TACACATA	0.289
GCATATCC	0.391
GGATCAGA	0.414
AATTGGGT	0.0144
ATGCGCGC	-0.00946
ATCGCCCA	0.197
TACCTAGA	0.232
AGGGATGA	0.176

Sequence	binding signal [E-score]
AATCTATC	0.0686
ACTACTTC	-0.0404
GCCCAACA	-0.174
TACCAGAA	0.0693
ACGAGCCA	0.025
AACGTCAT	-0.0961
AAGAGAAC	-0.0129
CAGACTGC	-0.281
CAAATTGC	-0.23
AGGATTGC	0.066
GGGAGATA	0.334
AAGATCCG	0.312
AGATCATG	0.295
ATATCTTA	0.345
GGTTCGAA	-0.072
ACCTACAT	-0.0597
ATGGGCGA	0.0869
CGATGCCA	-0.0713
CAGCCCCC	-0.204
